# Source: publication PMC4336329 (PLoS ONE, 2015)
# The whole screen tested about 310,000 compounds, of which about 14,000 (4.5%) showed an effect of 50% or more. The effect is printed as a negative number. The list shows a part of the results.
# Molecular target: human ether-à-go-go-related gene (hERG) potassium channel (human, UniProt Q12809)
# Experiment: primary screen, population patch clamp on CHO cells stably expressing hERG
# 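Further: peak tail current of the secondary pulse compared with the same well before compound.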
# human ether-à-go-go-related gene (hERG) potassium channel, sequence (Q12809 whole entry, looked up): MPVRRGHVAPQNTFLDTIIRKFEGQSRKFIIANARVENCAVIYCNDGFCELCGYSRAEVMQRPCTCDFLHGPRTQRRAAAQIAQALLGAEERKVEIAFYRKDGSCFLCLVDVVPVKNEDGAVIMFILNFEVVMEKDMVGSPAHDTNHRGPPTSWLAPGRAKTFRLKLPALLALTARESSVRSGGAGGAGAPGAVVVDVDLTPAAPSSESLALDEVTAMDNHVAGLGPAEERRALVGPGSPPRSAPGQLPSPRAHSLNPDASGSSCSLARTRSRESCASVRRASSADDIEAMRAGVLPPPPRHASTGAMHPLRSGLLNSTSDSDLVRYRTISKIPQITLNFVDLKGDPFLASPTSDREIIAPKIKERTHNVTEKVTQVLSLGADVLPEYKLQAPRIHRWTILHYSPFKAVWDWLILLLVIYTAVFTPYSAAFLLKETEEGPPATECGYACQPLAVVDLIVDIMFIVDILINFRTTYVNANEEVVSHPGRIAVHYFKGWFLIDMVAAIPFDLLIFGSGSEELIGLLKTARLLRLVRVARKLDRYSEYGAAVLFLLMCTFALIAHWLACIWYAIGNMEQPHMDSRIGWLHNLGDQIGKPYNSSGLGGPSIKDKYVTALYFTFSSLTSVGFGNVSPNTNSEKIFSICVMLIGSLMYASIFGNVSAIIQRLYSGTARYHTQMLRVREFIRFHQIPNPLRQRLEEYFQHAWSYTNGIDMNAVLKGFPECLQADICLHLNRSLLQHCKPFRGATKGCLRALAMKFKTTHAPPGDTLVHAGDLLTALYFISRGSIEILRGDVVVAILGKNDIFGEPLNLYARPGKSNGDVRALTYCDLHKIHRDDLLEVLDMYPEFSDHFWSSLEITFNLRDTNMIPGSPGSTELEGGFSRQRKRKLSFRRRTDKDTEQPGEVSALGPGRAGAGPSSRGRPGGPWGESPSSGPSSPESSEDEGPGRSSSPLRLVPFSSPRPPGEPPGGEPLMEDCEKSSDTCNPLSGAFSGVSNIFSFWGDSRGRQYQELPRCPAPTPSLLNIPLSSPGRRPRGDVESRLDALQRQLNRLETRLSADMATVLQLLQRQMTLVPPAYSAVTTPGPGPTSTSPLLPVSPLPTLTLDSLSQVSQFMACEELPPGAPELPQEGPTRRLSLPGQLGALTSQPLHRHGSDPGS
row,Structure (SMILES),"hERG current change (%, negative = inhibition) at 10uM [%]"
1,COc1cc(C(=O)NCC(C)C)cc(OC)c1OC,6.67
2,COc1ccc(N2CCN(c3oc(COc4ccc(Cl)cc4)nc3C#N)CC2)cc1,-2.55
3,COc1ccc(CCN2C(=O)C3C4CCC(C4=C(C)C)C3C2=O)cc1OC (centres unmarked),18.1
4,COc1ccc(/C=C(\NC(=O)c2ccc(C)cc2)C(=O)NCC2CCCO2)cc1 (centres unmarked),-8.44
5,COc1cc(Cl)ccc1OCc1cc(C(=O)N2C[C@@H]3CCC[C@H]2C3)no1,-26.8
6,COc1ccc(OC)c(C2=NS(=O)(=O)N(C)C(C(=O)Nc3cccc(C(C)=O)c3)=C2)c1,-2.21
7,CCOC(=O)CC(=O)CSc1ccc2nnc(-c3ccc(F)cc3)n2n1,-23.4
8,CCOC(=O)/C=C/[C@H]1CCc2cccc(C)c2O1,-14.8
9,Cc1cc(C)n(S(=O)(=O)c2ccccc2[N+](=O)[O-])n1,14.3
10,Cc1nn(-c2ccccc2)c2nc(N)c(C#N)c(-c3ccc(O)c(O)c3)c12,13
11,CCOC(=O)c1ccc(NC(=O)C2C3CCC(C3)C2C(=O)O)cc1 (centres unmarked),15.4
12,CCc1cccc(OCC(=O)Nc2ccc(S(=O)(=O)N3CCCC3)cc2)c1,2.4
13,CN(CC(=O)NC1CCCCCC1)S(=O)(=O)c1ccc2c(c1)n(C)c(=O)c(=O)n2C,11.6
14,C=C(C)CSc1nnc2n(C)c(=O)c3c4c(sc3n12)CCC4,-21.6
15,COCCn1c(C)cc(C(=O)COC(=O)c2ccc(-n3nc(C)cc3C)cc2)c1C,2.16
16,COc1ccc(S(=O)(=O)CC(=O)Nc2ccccc2Cl)cc1,13.3
17,CCCCc1nnc(NC(=O)C23CC4CC(CC(NC(C)=O)(C4)C2)C3)s1,-1.81
18,CCOC(=O)C(CCCOc1ccccc1C)C(=O)OCC,6.43
19,Cc1cc(OCC(=O)NCCO)ccc1Cl,6.66

row,Structure (SMILES),"hERG current change (%, negative = inhibition) at 10uM [%]"
1,Cc1c(C(=O)NCc2ccco2)sc2nc(-c3ccccc3)cn12,-30.8
2,N#CC(C#N)=C1C(=O)N(CCN2CCCCC2)c2ccccc21,-0.262
3,CCc1ccccc1N=C1S/C(=C/c2ccccc2OCC(=O)N2CCOCC2)C(=O)N1C,-17.6
4,O=c1c2ccccc2c(=O)n(-c2ccccc2)n1CCCCBr,-63.5
5,COc1ccccc1C1N(c2ccc(Cl)cc2)C(=O)C2CCCN21 (centres unmarked),11.7
6,Cl.N=c1n(Cc2ccc(Cl)cc2)c2ccccc2n1CC(O)COc1ccccc1 (centres unmarked),-68.2
7,Cc1c(Cl)cccc1NC(=O)CCC(=O)N/N=C/c1ccco1,18.9
8,CS(=O)(=O)NN1C(=O)c2ccccc2NC1c1c[nH]c2ccccc12 (centres unmarked),6.65
9,O=C(O)C1CCC(=O)N1C1CCCC1 (centres unmarked),10.9
10,CCOC(=O)CCC(NC(=O)CCC(=O)NC(CCC(=O)OCC)C(=O)OCC)C(=O)OCC (centres unmarked),25.1
11,N#CC(C(=O)NC1CC1)c1nc2ccccc2nc1N1CCCC1 (centres unmarked),-7.63
12,COc1ccc(CCn2c(=N)c(S(=O)(=O)c3ccc(Cl)cc3)cc3c(=O)n4ccccc4nc32)cc1,20.5
13,CC1CCCCN1C(=O)c1ccccc1OC1CCN(S(C)(=O)=O)CC1 (centres unmarked),5.73
14,COc1ccc(CNC(=O)CSc2ccc(Br)cc2)cc1OC,-63.1
15,COc1ccccc1NC(=O)C1CC(=O)OC1c1ccccc1 (centres unmarked),-4.82
16,COc1cc(OC)cc(C2(C#N)CCN(C)CC2)c1,-9.94
17,Cc1onc(-c2ccccc2)c1C(=O)OCC(=O)N(CC(C)C)c1c(N)n(Cc2ccccc2)c(=O)[nH]c1=O,5.16
18,CCCCNC(=O)c1c(N)n(/N=C/c2ccccn2)c2nc3ccccc3nc12,8.1
19,O=C(c1ccc(F)cc1)c1ccc(N2CCCC2)cc1,-8.35

row,Structure (SMILES),"hERG current change (%, negative = inhibition) at 10uM [%]"
1,CC(C)C(C(=O)Nc1ccccc1)N1C(=O)c2ccccc2C1=O (centres unmarked),-3.34
2,Cc1ccc(NC2CCCCC2NS(=O)(=O)c2ccc(Cl)cc2)cc1 (centres unmarked),5.07
3,CN(Cc1ccon1)C(=O)CCc1nnc(Cc2ccc(-c3ccccc3)cc2)o1,-20
4,COc1cc2c(cc1OC)[C@@]13CCN4CC5=CCO[C@H]6CC(=O)N2[C@H]1[C@H]6[C@H]5C[C@H]43,-8.03
5,CCN(CC)c1ccc(NC(=O)CN2CCN(c3ccccn3)CC2)cc1,-2.86
6,COc1ccc(NC(=O)c2ccco2)c2ccccc12,-2.18
7,O=C(Cc1n[nH]c(=O)[nH]c1=O)N/N=C/c1ccccc1O,8.68
8,O=C(COC(=O)c1cc(S(=O)(=O)N2CCCCC2)ccc1N1CCOCC1)NC1CCS(=O)(=O)C1 (centres unmarked),4.31
9,Cc1ccccc1CN1CCC(CNC(=O)C2CCCN(c3ncnc4c3nc3n4CCCCC3)C2)CC1 (centres unmarked),-7.3
10,COc1ccc(C(=O)NCC(=O)OCC(=O)N2CCN(S(=O)(=O)c3ccccc3)CC2)cc1,2.35
11,NCC(CC(=O)O)C1CCCCC1 (centres unmarked),5.24
12,COc1ccccc1OCC(=O)NC1CC(C)(C)NC(C)(C)C1,4.85
13,Cc1c(C(=O)Nc2ccccc2)cnn1-c1ccccc1,-3.03
14,Cc1cc(C)c(S(=O)(=O)n2nc(C)c(Br)c2C)c(C)c1,2.14
15,O=C(N/N=C/c1coc2ccccc2c1=O)c1ccccc1,10.6
16,O=C1COc2ccc(C(=O)COc3ccc([N+](=O)[O-])cc3)cc2N1,8.2
17,CN(C)C(CNC(=O)c1ccc([N+](=O)[O-])cc1Cl)c1ccco1 (centres unmarked),8.69
18,CN(C)S(=O)(=O)c1cccc(NC(=O)CN2C(=O)NC(Cc3c[nH]c4ccccc34)C2=O)c1 (centres unmarked),18.4
